Data published in publication PMC4336329 (PLoS ONE, 2015).
The campaign covered roughly 310,000 compounds. About 2,200 (0.71%) showed an effect of 50% or more. The effect is printed as a negative number. Some of the results follow.

What follows are molecules tested against human ether-à-go-go-related gene (hERG) potassium channel (human, UniProt Q12809) (assay: primary screen, population patch clamp on CHO cells stably expressing hERG).
human ether-à-go-go-related gene (hERG) potassium channel, sequence (Q12809 whole entry, looked up): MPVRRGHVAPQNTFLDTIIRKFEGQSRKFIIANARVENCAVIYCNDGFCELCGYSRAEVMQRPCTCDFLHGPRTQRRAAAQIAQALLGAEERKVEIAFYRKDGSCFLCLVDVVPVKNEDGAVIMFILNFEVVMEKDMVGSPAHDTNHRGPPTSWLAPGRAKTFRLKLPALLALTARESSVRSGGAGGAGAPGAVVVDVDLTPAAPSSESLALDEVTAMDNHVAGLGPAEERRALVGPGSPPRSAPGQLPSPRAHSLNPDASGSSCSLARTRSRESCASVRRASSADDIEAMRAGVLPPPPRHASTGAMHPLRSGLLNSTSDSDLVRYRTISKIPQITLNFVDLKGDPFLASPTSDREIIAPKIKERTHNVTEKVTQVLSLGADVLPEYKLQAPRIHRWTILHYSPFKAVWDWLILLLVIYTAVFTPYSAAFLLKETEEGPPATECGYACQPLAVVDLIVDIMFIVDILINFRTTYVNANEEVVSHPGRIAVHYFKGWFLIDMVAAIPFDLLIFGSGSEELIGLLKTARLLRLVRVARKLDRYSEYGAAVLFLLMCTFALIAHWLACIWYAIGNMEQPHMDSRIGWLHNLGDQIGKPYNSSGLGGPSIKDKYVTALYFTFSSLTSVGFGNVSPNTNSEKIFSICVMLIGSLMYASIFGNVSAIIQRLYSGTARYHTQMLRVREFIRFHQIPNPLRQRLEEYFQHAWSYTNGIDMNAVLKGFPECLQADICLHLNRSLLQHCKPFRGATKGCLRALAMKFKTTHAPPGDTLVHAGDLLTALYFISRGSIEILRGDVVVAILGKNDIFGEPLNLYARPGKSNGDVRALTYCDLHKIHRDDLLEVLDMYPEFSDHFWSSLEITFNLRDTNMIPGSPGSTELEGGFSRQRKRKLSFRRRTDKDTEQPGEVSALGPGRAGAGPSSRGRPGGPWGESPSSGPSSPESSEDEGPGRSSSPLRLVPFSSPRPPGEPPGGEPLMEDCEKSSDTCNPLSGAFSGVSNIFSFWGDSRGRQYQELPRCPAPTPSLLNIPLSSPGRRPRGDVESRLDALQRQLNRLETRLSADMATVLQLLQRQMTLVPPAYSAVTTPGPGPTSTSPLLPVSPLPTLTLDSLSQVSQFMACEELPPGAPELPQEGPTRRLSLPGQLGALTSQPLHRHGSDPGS

Row | Structure (SMILES) | hERG current change (%, negative = inhibition) at 1uM [%]
1 | Cc1cc(C(=O)CSCCCn2c(=O)[nH]c3ccccc32)c(C)n1C | 15.7
2 | O=C(CC1(C(=O)O)CCCC1)N1CCOCC1 | 1.14
3 | Cc1c(C(=O)N(Cc2cccc(Br)c2)C2CCS(=O)(=O)C2)oc2ccccc12 (stereo not drawn) | 11.5
4 | CC(C)(CC(=O)O)CC(=O)Nc1ccccc1Oc1ccccc1 | -0.446
5 | CCC(CC)C(=O)Nc1cc([N+](=O)[O-])ccc1F | 12
6 | Cc1ccc(NS(=O)(=O)c2ccc(Cl)c(NC(=S)NC(=O)C3CCCCC3)c2)cc1Cl | 10.8
7 | CC(C)c1nc2c(c(=O)c3ccccc3n2C)c(=O)n1CCc1ccccc1 | 7.37
8 | Cc1cccc(C(=O)NNC(=O)c2ccc(NC(=O)C(C)(C)C)cc2)c1 | 12.5
9 | Cc1cc(/C=N/n2cnnc2)c(C)n1-c1ccc(OCc2ccc(F)cc2)cc1 | 14.1
10 | Cc1ccc(S(=O)(=O)CCC(=O)OCc2ccc(Cl)c(Cl)c2)cc1 | -1.11
11 | CC(C)NC(=O)NC(=O)CSc1ncccn1 | 4.96
12 | COc1ccc(N(C(C)C(=O)Nc2ccc(S(=O)(=O)N3CCOCC3)cc2)S(C)(=O)=O)cc1 (stereo not drawn) | 12.6
13 | CCOc1ncccc1C(=O)OCC(=O)c1ccccc1 | 13.2
14 | Cc1ccc(NC(=O)Cn2c(/C=C/c3ccccc3)nc3ccccc32)cc1C | 1.95
15 | CCOC(=O)C1CCN(C(=O)c2ccc(NS(=O)(=O)c3ccc(F)cc3C)cc2)CC1 | -3.51
16 | COc1ccc(CN2CC=C(c3ccc(F)cc3)CC2)cc1Br | 10.3
17 | COc1ccccc1N(CC(=O)NCCSCc1cccc(Cl)c1)S(C)(=O)=O | -14.2
18 | COc1ccc(C(=O)c2c(C)oc3cc([N+](=O)[O-])c(O)c([N+](=O)[O-])c23)cc1 | 8.59
19 | CCN(CC)CCn1c2ccccc2c2cnc(N=CN(C)C)c(C#N)c21 | -18.4
20 | CC(OC(=O)CNS(=O)(=O)c1ccc2ccccc2c1)C(=O)N(C)c1ccccc1 (stereo not drawn) | 13.4
21 | O=C(N=c1ccn(-c2nc3ccccc3nc2NS(=O)(=O)c2ccc(Cl)cc2)cc1)c1ccccc1Cl | 6.49

Row | Structure (SMILES) | hERG current change (%, negative = inhibition) at 1uM [%]
22 | Cc1cc(=O)c(C(=O)O)cn1-c1ccc(C(C)C)cc1 | 6.7
23 | COc1ccc(S(=O)(=O)NC(Cc2ccccc2)C(=O)O)cc1 (stereo not drawn) | 10.6
24 | CCOC(=O)C(Cc1ccccc1)(NC(C)=O)C(=O)OCC | 14.4
25 | O=C(CNCCN1CCOCC1)Nc1ccccc1Sc1ccccc1.O=C(O)C(=O)O | 1.74
26 | COCCN1C(=O)N[C@@H](c2ccco2)C(C(=O)OC)=C1C | 8.11
27 | CN(C)CCNC(=O)c1coc(=O)c(Br)c1 | 10.9
28 | CCOC(=O)c1c(NC(=O)Cn2ccsc2=N)sc(C)c1C.Cl | -1.96
29 | CC(c1nc2ccccc2c(=O)[nH]1)N1CCCN(S(=O)(=O)c2ccc(F)cc2)CC1 (stereo not drawn) | -7.16
30 | Cc1ccccc1CS(=O)(=O)Cc1ccc(C(=O)NCCCN2CCCC2=O)o1 | 7.69
31 | CCCCOC(=O)CSc1nnc(-c2ccc(Cl)cc2Cl)o1 | 7.82
32 | NC(=O)c1ccccc1NC(=S)NC(=O)CCc1ccccc1 | 6.72
33 | CCN1CCN(CCCN(Cc2ccco2)C(=S)Nc2cccc(Cl)c2C)CC1 | -8.07
34 | O=C1c2cccc3cccc(c23)C(=O)N1c1cccnc1 | 17.3
35 | CC(C)C[C@H](NC(=O)NC1CCCc2ccccc21)C(=O)O (stereo partly drawn) | 9.1
36 | CCN(CC)CCCN1C(=O)C(=O)/C(=C(/O)c2cc(C)ccc2C)C1c1cccnc1 (stereo not drawn) | 3.66
37 | CCCCNC(=O)N(CC)c1c(N)n(Cc2ccccc2)c(=O)[nH]c1=O | 6.73
38 | O=C1CC(c2cccc(Cl)c2)CC(O)=C1C=Nc1cccc(Cl)c1 (stereo not drawn) | 3.81
39 | Cc1cccn2c(=O)c3cc(C(=O)NCCN4CCOCC4)c(=N)n(CCN4CCOCC4)c3nc12 | 12.2
40 | Cc1ccc(-c2nnnn2CS(=O)(=O)c2ccccc2)cc1 | 10.2
41 | CC(C)(C)OC(=O)N[C@@H](Cc1ccccc1)C(=O)N1CCC(C(=O)NCC(=O)O)CC1 | 5.87
42 | CCOc1ccc(NC(=O)COc2ccc(C(=O)N3CCC(C(N)=O)CC3)cc2OC)cc1 | 11.1
